From PMC9911399, “Two distinct binding modes provide the RNA-binding protein RbFox with extraordinary sequence specificity”
Changes are numbered by the printed parent chain; changes in the protein carry UniProt numbers. The list shows a part of the results.

T1: RBFOX1 RRM RbFoxmut (Fox-RRM*) (Homo sapiens, UniProt Q9NWB1 109-208, R118D;E147R;N151S;E152T)
T1 sequence: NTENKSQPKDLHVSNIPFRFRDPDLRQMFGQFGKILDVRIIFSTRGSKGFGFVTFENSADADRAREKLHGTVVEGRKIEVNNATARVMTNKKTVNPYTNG

B1: CGCCAAU (DNA:RNA)
RNA: GGGAGACCGGAAUUCAGAUUGUCCCGCCAAUUUAAAUCCCGUCGUAGCCACCA
DNA 1: CAATCTGAATTCCGGTCTCCC
DNA 2: TGGTGGCTACGACGGGATT
B2: UAACCAA (DNA:RNA)
RNA: B1 RNA with C25U, G26A, C27A, A29C, U31A
DNA 1: CAATCTGAATTCCGGTCTCCC
DNA 2: TGGTGGCTACGACGGGATT
B3: ACCAGCG (DNA:RNA)
RNA: B1 RNA with C25A, G26C, C28A, A29G, A30C, U31G
DNA 1: CAATCTGAATTCCGGTCTCCC
DNA 2: TGGTGGCTACGACGGGATT
B4: CCACGGA (DNA:RNA)
RNA: B1 RNA with G26C, C27A, A29G, A30G, U31A
DNA 1: CAATCTGAATTCCGGTCTCCC
DNA 2: TGGTGGCTACGACGGGATT
B5: UAAGAGA (DNA:RNA)
RNA: B1 RNA with C25U, G26A, C27A, C28G, A30G, U31A
DNA 1: CAATCTGAATTCCGGTCTCCC
DNA 2: TGGTGGCTACGACGGGATT
B6: GCAGAUG (DNA:RNA)
RNA: B1 RNA with C25G, G26C, C27A, C28G, A30U, U31G
DNA 1: CAATCTGAATTCCGGTCTCCC
DNA 2: TGGTGGCTACGACGGGATT
B7: CAACGAA (DNA:RNA)
RNA: B1 RNA with G26A, C27A, A29G, U31A
DNA 1: CAATCTGAATTCCGGTCTCCC
DNA 2: TGGTGGCTACGACGGGATT
B8: AGAAGGU (DNA:RNA)
RNA: B1 RNA with C25A, C27A, C28A, A29G, A30G
DNA 1: CAATCTGAATTCCGGTCTCCC
DNA 2: TGGTGGCTACGACGGGATT
B9: GCGUACC (DNA:RNA)
RNA: B1 RNA with C25G, G26C, C27G, C28U, A30C, U31C
DNA 1: CAATCTGAATTCCGGTCTCCC
DNA 2: TGGTGGCTACGACGGGATT

Each binder was assayed against T1, RBFOX1 RRM RbFoxmut (Fox-RRM*) (assay: EMSA; HiTS-Eq, 1 nM pool, 10 min; buffer printed only for the single-RNA assays: 10 mM Tris pH 7.5, 150 mM NaCl, 3.4 mM EDTA, 0.001% NP-40, 30 C). Conditions: tags: His6 N-terminal (pET28a); label: 5' 32P.
Method in brief: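 Purified RbFox RRM (wild type or mutant) was equilibrated for 10 min in 50 µL with 1 nM of a 5′-radiolabelled pool of RNA with 7 randomized nucleotides, its flanks annealed to DNA oligonucleotides, across increasing protein concentrations. Free RNA was separated by 8% native PAGE, excised, reverse-transcribed, PCR-barcoded and sequenced on an Illumina HiSeq 2500. Relative association constants came from read-count changes of each variant against the control reaction, normalised to the cognate motif.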

**Q.** For B1, which binding signal is on record?
**A.** 0.0641 KA relative to UGCAUGU

**Q.** How did the binding signal turn out when B2 was run?
**A.** 0.0641 KA relative to UGCAUGU

**Q.** Which binding signal does the source give for B3 here?
**A.** 0.12 KA relative to UGCAUGU

**Q.** B4 was tested. Which binding signal did it give?
**A.** 0.0732 KA relative to UGCAUGU

**Q.** Which binding signal does the source give for B5 here?
**A.** 0.0902 KA relative to UGCAUGU

**Q.** How did the binding signal turn out when B6 was run?
**A.** 0.142 KA relative to UGCAUGU

**Q.** With B7 as the binder, how does the binding signal read?
**A.** 0.0916 KA relative to UGCAUGU

**Q.** How did the binding signal turn out when B8 was run?
**A.** 0.0852 KA relative to UGCAUGU

**Q.** How did the binding signal turn out when B9 was run?
**A.** 0.0833 KA relative to UGCAUGU
